Assay results taken from ChEMBL document CHEMBL4888484, “Replenishing the malaria drug discovery pipeline: Screening and hit evaluation of the MMV Hit Generation Library 1 (HGL1) against asexual blood stage Plasmodium falciparum ,using a nano luciferase reporter read-out” (2022).
Out of some 150,000 compounds screened, about 540 (0.36%) showed an effect of 50% or more. Some of the results follow.

Test system: Plasmodium falciparum
Experiment: Primary screen in NF54 nanoGlo assay, in single point, at 2uM, 72h; a lower Z score goes with more inhibition
Type: functional, Erythrocyte
Conditions: timepoint 72 hour

Row | Structure (SMILES) | % Inhibition [%] | Z score
1 | Cc1cc(NC(=O)c2sc(-c3cn(C)c4ncccc34)nc2C)ccc1F | -8 | 1.44
2 | CC1CCN([C@@H](CNS(=O)(=O)c2ccc(F)cc2F)c2cccs2)CC1 | -16 | 1.42
3 | OC1=Nc2c(ncn2-c2cccnc2)[C@@H](c2ccc(C(F)(F)F)cc2)C1 | 7 | -1.1
4 | CCc1cc(NC(=O)C(=O)NCc2ccc(C#N)cc2F)n(C)n1 | -3 | 0.63
5 | CC(C)Oc1ccccc1CNC[C@H]1CC(C(N)=O)=NO1 | -6 | 0.85
6 | O=C1CCCCCN1CCNS(=O)(=O)N1CCCCC1 | -6 | 0.83
7 | Cc1cccc(N2N=C(C(=O)NCCn3ccnc3)CCC2=O)c1 | -2 | 0.28
8 | O=C(c1cc(Br)co1)N1CCC[C@H](CCO)CC1 | -15 | 2.52
9 | Cn1cccc1CN(Cc1cccs1)C(=O)Cc1ccc(F)cc1 | -2 | 0.22
10 | COc1ccc(F)c(F)c1C(=O)N(CCOc1ccccc1)C[C@H]1CCCO1 | -3 | 0.4
11 | COC(=O)c1c(F)cccc1NS(=O)(=O)c1cn[nH]c1 | 8 | -1.12
12 | Cc1cc(Cl)ccc1NC(=O)c1c(C)sc2c(C)c(C)[nH]c12 | -7 | 0.94
13 | CCn1nnc2c(=O)n(Cc3c(F)cccc3Cl)cnc21 | -3 | 0.54
14 | Clc1ccc(OCc2ccccc2)c(CNCc2ccco2)c1 | -1 | 0.11
15 | O=C([C@H]1CCS(=O)(=O)C1)N1CC(O)(c2ccc(Cl)cc2)C1 | -11 | 1.48
16 | CCn1c(C)nc2cc(NS(=O)(=O)c3ccccc3)cc(C(=O)N[C@H]3CCOC(C)(C)C3)c21 | -3 | 0.38
17 | N#Cc1cccc(S(=O)(=O)CCN2CC3CC=CCC3C2)c1 (stereo not given) | -13 | 1.2
18 | CS(=O)(=O)N1CCN(C(=O)c2ccc3c(c2)CCO3)CC1 | -3 | 0.3
19 | CCCNCc1c[nH]nc1-c1cccs1 | -9 | 1.21
20 | CCN(CCCOc1ccc(C)c(C)c1)[C@H]1CCS(=O)(=O)C1 | 3 | -0.43
21 | CCn1ncnc1CNC1CC(c2ccc(Br)cc2)C1 (stereo not given) | -13 | 1.96
22 | O=C(NCCOCCN1C(=O)CCC1=O)NC1CCCC1 | -13 | 2.26

Row | Structure (SMILES) | % Inhibition [%] | Z score
23 | Cn1cc(S(=O)(=O)N2CCC(C(=O)Nc3ccccc3)CC2)c(=O)n(C)c1=O | -8 | 1.08
24 | COc1ccccc1OCC(=O)Nc1ccccc1-n1cnnc1C | 36 | -4.88
25 | Cc1cc(N2C[C@H](N(C)C)C3(CCOCC3)C2)nc(C)n1 | -5 | 1.01
26 | Cc1nnc([C@H]2CN(C(=O)c3ccccc3)CC23CCN(C(=O)Cc2cccnc2)CC3)o1 | -19 | 2.83
27 | Cc1[nH]ccc1C(=O)N(CCN(C)C)Cc1ccco1 | -14 | 2.23
28 | Cc1[nH]c2c(CN(C)CCc3cnn(C)c3)cccc2c1C | -11 | 1.84
29 | CCOc1ncccc1CNC(=O)c1coc(NC(=O)Cc2c(C)noc2C)n1 | 6 | -0.81
30 | O=C1CN(C(=O)[C@H](O)C2CCCCC2)CCCN1 | -5 | 1.03
31 | NC(=O)CCn1cc(-c2cccc(-c3ccn[nH]3)c2)cn1 | -12 | 1.19
32 | COc1cc(C(=O)N[C@H]2COCC[C@@H]2OC)c(Cl)cc1OC(C)C | 0 | 0.05
33 | CS(=O)(=O)c1ccc(C(=O)NCC[C@H]2CCc3ccccc32)s1 | -2 | 0.35
34 | Cc1cc(C(=O)N2C3CCC2CC(N(C)C(=O)c2ccccc2)C3)cnn1 (stereo not given) | -9 | 1.18
35 | CN(C(=O)c1ccc(C(N)=O)cn1)C1CCCCCC1 | -2 | 0.25
36 | CCOC(=O)c1cc(-c2ccccc2)n(-c2cccc(C(=O)Nc3cccc(C)n3)c2)c1C | 13 | -1.46
37 | COc1cccc(CNC(=O)CC2CC(F)(F)C2)c1 | 7 | -0.84
38 | c1ccc2oc(CN3CC[C@H]4CC[C@@H](C3)N4)cc2c1 | -10 | 1.1
39 | CCOc1ccc(NC(=O)C2[C@H]3C=C[C@@]4(O3)C(C(=O)NC3CCCCC3C)N(C(C)C)C(=O)[C@@H]24)cc1 (stereo not given in full) | 1 | -0.22
40 | COc1ccc(C(=O)Nc2ccc(-c3nc(-c4cc(C)ccc4C)co3)cc2)cc1 | 0 | -0.01
41 | Cc1nc2ncnn2c(N2CCS(=O)(=O)C(C)(C)C2)c1C | -13 | 1.5
42 | COC(=O)[C@@H](C)CC(=O)NCCc1ccccc1 | -2 | 0.24
43 | O=S(=O)(NC1CCN2CCCCC12)c1ccccc1 (stereo not given) | -5 | 0.95
44 | Cc1cc(N2CCCCS2(=O)=O)cc(C)c1S(=O)(=O)NC1CC1 | -16 | 1.47

Row | Structure (SMILES) | % Inhibition [%] | Z score
45 | N#Cc1ccc(OCCN2CCCC[C@@H]2Cn2cncn2)cc1 | -9 | 1.4
46 | O=C(NCc1ccco1)c1cc(NCc2ccc3c(c2)OCO3)ccn1 | 1 | -0.23
47 | Cc1ccc(NCc2ccc(-c3cccc(F)c3C)o2)cc1N1C(=O)CCC1=O | 14 | -1.42
48 | CCOc1cccc(CNC(=O)[C@]2(CC)CCCCC(=O)N2)c1 | 9 | -1.08
49 | COCCn1ncc2c1[C@@H](NC(=O)c1cccc(CO)c1)CCC2 | -9 | 1.51
50 | O=C(Cn1ccc2ccccc21)N1CCN(CCO)[C@@H]2CS(=O)(=O)C[C@@H]21 | -10 | 1.35
51 | CCn1c([C@H]2CCCNC2)nn(Cc2cccc(C(=O)OC)c2)c1=O | -9 | 1.2
52 | Cc1cc(C(=O)NCCn2nc(C(F)(F)F)n(C)c2=O)no1 | -5 | 0.61
53 | CN(C)C(=O)Cn1cc(C(=O)Nc2ccccc2Oc2cccc(F)c2)nn1 | -11 | 1.97
54 | O=C(c1ccncc1)N1CC(n2ccnn2)C1 | -11 | 1.67
55 | Cc1cnc(C(=O)Nc2nc(-c3ccc4c(c3)OCO4)cs2)cn1 | -17 | 3.16
56 | O=C(NCc1ccccc1)c1cn(C[C@@H]2CC(F)(F)CN2C(=O)Cc2ccncc2)nn1 | -3 | 0.54
57 | CCN(CC)C(=O)c1ccc(Cl)c(NC(=O)NCC(F)(F)F)c1 | -13 | 1.19
58 | COC(=O)c1cc2n(n1)CCN(C(=O)[C@@H]1COCCO1)C2 | -18 | 1.75
59 | C[C@H]1[C@@H](O)CCCN1C(=O)Cc1cccc(C(F)(F)F)n1 | -4 | 0.55
60 | C[C@H]1CN(c2cccc(C#N)n2)C[C@]1(O)C1CC1 | 9 | -1.76
61 | Cc1cc(C(=O)N[C@H](c2ncc[nH]2)C(C)C)ns1 | 16 | -1.87
62 | Cc1ccc(C2CCCCCN2C(=O)c2cn(C3CCOC3)nn2)o1 (stereo not given) | 13 | -1.7
63 | COC(=O)Nc1nc(Cc2nc(-c3ccccn3)no2)cs1 | -14 | 1.54
64 | COCc1nc(C)nc(N2CCN(C(=O)C(C)C)CC2)c1Cc1ccccc1F | 16 | -2
65 | Cc1nn(-c2ccc3nnc(C)n3n2)c2c1[C@@H](c1cccc(OCC(C)C)c1)CC(=O)N2 | -13 | 1.63
66 | CC(C)CN1CCn2nc(CNc3cc(C#N)ccn3)cc2C1 | 0 | -0.03

Row | Structure (SMILES) | % Inhibition [%] | Z score
67 | Cc1noc(C)c1S(=O)(=O)NCc1ccc2c(c1)OCCO2 | -3 | 0.45
68 | COCCNC(=O)NCC1CCCOC1C(C)(C)C (stereo not given) | -5 | 0.79
69 | Cc1ccc(S(=O)(=O)N2CCN(C(=O)NCCn3cncn3)CC2)cc1 | -9 | 1.13
70 | CC(C)N(CC(C)(C)O)C(=O)N[C@H](c1ccccn1)C1CCCC1 | 1 | -0.08
71 | CC(C)n1cnnc1CCn1cnc2nccnc2c1=O | -13 | 2.65
72 | CN(C)S(=O)(=O)N1CCC[C@H](c2cc(-c3ccc(F)cc3)n[nH]2)C1 | 13 | -1.69
73 | Cc1csc(N(CC(F)(F)F)C(=O)CCc2cncc(F)c2)n1 | -14 | 1.53
74 | O=C(c1ccc(NS(=O)(=O)c2cccs2)cc1)N1CCN(c2ccccc2Cl)CC1 | -13 | 1.7
75 | O=S(=O)(CCC1CCOC1)N1CCCCC1c1ncc[nH]1 (stereo not given) | -3 | 0.66
76 | COc1ccc(OC[C@H](CN(C)C2=NS(=O)(=O)c3ccccc32)OC(=O)c2ccc(C)cc2)cc1 | -4 | 0.58
77 | Cc1ccc(-c2cc(-c3nc(-c4cccnc4)no3)[nH]n2)c(C)c1 | 11 | -1.17
78 | COc1ccc2c(c1)N(C(=O)c1n[nH]c3c1CCC3)CCCC2 | -12 | 0.97
79 | CC1CN(CC2CCCO2)CCC1Nc1ccc2[nH]ncc2c1 (stereo not given) | -7 | 0.99
80 | O=C1Nc2ccccc2[C@@]12Nc1ccccc1CO2 | 36 | -5.24
81 | O=C(Nc1cccc2c1CCCC2)c1ccc2[nH]cnc2c1 | -7 | 1.08
82 | Cc1nonc1CN1CC[C@H](C2CCCCC2)C1 | -3 | 0.54
83 | COCC1(CNC(=O)C[C@H](N)c2ccccc2)CCC1 | 8 | -1.08
84 | CCOC(=O)c1nn(C)cc1CN(C)Cc1c(C)noc1C | -7 | 0.56
85 | CC(=O)N1CCCN(C(=O)C2CC2c2ccc3ccccc3c2)CC1 (stereo not given) | -1 | 0.1
